{
  "source": "PubChem BioAssay AID504332",
  "about": "(National Center for Advancing Translational Sciences (NCATS), 2011)",
  "note": "About 31,000 (8.9%) of roughly 350,000 compounds were called active. Inconclusive results, whose numbers are uncertain, are shown with a selection of clear calls. Calls come from the whole dose curve; as a rule, active = well fitted inhibition curve with a large enough effect; inconclusive = small, poorly fitted or top-dose-only effect; inactive = no such curve, though single readings can be large or run the other way. Where the call is inconclusive, the potency comes from a doubtful curve fit. % is set by controls: 0 for no effect and ±100 for the full control effect; potency is the fitted concentration of half-maximal effect; tags give direction and shape of the fitted curve.",
  "data": [
    {"target": "Histone-lysine N-methyltransferase EHMT2 (Homo sapiens) (UniProt Q96KQ7)", "sequence (Q96KQ7 whole entry, looked up)": "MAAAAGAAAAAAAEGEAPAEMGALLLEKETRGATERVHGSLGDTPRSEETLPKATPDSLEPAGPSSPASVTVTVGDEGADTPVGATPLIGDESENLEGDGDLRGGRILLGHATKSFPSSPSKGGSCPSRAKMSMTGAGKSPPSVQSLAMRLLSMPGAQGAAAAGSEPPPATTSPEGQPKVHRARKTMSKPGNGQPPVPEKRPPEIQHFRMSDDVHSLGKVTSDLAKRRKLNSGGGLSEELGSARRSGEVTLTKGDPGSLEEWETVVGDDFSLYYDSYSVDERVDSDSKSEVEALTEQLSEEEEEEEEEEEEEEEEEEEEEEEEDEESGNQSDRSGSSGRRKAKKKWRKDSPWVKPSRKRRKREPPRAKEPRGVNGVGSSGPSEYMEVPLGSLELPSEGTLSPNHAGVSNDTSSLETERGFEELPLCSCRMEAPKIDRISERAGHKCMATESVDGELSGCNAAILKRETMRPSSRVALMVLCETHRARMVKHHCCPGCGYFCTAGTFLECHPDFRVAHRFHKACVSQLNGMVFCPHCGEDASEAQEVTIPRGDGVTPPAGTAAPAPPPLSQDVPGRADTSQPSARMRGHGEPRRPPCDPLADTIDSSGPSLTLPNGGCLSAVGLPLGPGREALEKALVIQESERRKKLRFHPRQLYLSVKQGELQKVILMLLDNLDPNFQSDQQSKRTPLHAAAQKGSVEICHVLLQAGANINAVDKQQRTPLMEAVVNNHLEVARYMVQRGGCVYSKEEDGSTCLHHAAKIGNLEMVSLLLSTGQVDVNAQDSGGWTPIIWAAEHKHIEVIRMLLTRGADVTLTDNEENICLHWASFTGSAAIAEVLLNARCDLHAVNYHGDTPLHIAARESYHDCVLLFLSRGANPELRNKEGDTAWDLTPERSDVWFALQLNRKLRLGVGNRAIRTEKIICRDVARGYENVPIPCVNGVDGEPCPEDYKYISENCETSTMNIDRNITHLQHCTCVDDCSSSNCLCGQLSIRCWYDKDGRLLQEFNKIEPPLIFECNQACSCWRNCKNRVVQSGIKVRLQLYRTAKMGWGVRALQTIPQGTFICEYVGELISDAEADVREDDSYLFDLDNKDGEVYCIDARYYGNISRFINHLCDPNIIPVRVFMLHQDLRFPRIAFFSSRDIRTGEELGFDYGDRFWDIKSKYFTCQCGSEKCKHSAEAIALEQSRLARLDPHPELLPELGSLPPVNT", "test": "qHTS Assay for Inhibitors of Histone Lysine Methyltransferase G9a; note: nearly all actives have a fitted effect of over 75% in size", "conditions": "G9a H3K9 monomethylation, AlphaScreen, 2 h; activity, negative = inhibition: at 59 µM (top of the series) unless noted", "method_in_brief": "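AlphaScreen detection with an anti-monomethyl H3K9 antibody quantified product after a 2 h room-temperature reaction containing 500 nM biotinylated H3K9 peptide, 20 µM SAM and 20 nM enzyme, which had been preincubated 15 min with compound.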", "values": [
      {"smiles": "COC(=O)[C@H]1[C@H](C(=O)OC)[C@@H](C(=O)OC)N(c2ccc(OC)cc2)[C@@H]1C(=O)OC", "Potency": "inconclusive: 89.1 µM [inhibitor, single point]"},
      {"smiles": "CCN(CCNS(=O)(=O)c1ccc2[nH]c(=O)sc2c1)c1ccccc1", "Potency": "inconclusive: 22.4 µM [inhibitor, single point]"},
      {"smiles": "O=C(NC(=S)N1CCN(Cc2ccccc2)CC1)c1ccccc1", "Potency": "inconclusive: 79.4 µM [inhibitor, single point]"},
      {"smiles": "CN(C)S(=O)(=O)c1cccc(NC(=O)Cn2cnc3ccccc3c2=O)c1", "Potency": "inconclusive: 79.4 µM [inhibitor, single point]"},
      {"smiles": "O=S(=O)(Nc1ccc(N2CCCCC2)cc1)c1cccc2cccnc12", "Potency": "active: 15.8 µM"},
      {"smiles": "O=[N+]([O-])c1ccc(C2NS(=O)(=O)N=C3CCCCCN32)cc1", "note": "(centres undefined)", "Potency": "active: 25.1 µM"},
      {"smiles": "COc1ccccc1C(=O)N/C(=C/c1ccco1)C(=O)Nc1ccc(C(=O)O)cc1", "Potency": "inconclusive: 28.2 µM [inhibitor, single point]"},
      {"smiles": "Cc1cc(O)c(/C=N/Nc2ccccc2Cl)c(=O)o1", "Potency": "active: 1.41 µM"},
      {"smiles": "CCOC(=O)c1cc2sc(C)cc2n1CC(=O)N1CCc2ccccc21", "Potency": "inconclusive: 0.794 µM [inhibitor, partial curve, poor fit]"},
      {"smiles": "Cc1nc(N(C)C)c2sc(=S)n(Cc3ccccc3)c2n1", "activity, negative = inhibition": "inactive: 12.4% [at 12.7 µM]"},
      {"smiles": "CCc1ccccc1NC(=O)Cn1c(=O)oc2ccccc21", "Potency": "inactive"},
      {"smiles": "CCCCN(C(=O)c1ccc(Cl)cc1)C1CC2CCC(C1)N2C", "note": "(centres undefined)", "Potency": "inconclusive: 79.4 µM [inhibitor, single point]"},
      {"smiles": "CCCN(C(=O)Cn1nc(Cc2cccnc2)c2ccccc2c1=O)c1ccc(C(C)C)cc1", "Potency": "inactive"},
      {"smiles": "COc1ccc(CNC(=O)c2sccc2-c2ccccc2)cc1OC", "Potency": "inconclusive: 11.2 µM [inhibitor, full curve]"},
      {"smiles": "Cc1nc2c(ccc3nc(NC(=O)c4ccc5c(c4)OCCO5)sc32)s1", "Potency": "active: 28.2 µM"},
      {"smiles": "CCOc1ccc(C2CC(=O)c3c([nH]c(C(=O)OC4CCCCCC4)c3C)C2)cc1", "note": "(centres undefined)", "Potency": "inactive"},
      {"smiles": "Cc1ccc(NC(=O)[C@H](Cc2ccccc2)N2Cc3ccccc3C2=O)cc1F", "Potency": "inconclusive: 31.6 µM [inhibitor, partial curve, poor fit]"},
      {"smiles": "COC(=O)/C(C#N)=C/c1ccc(C)o1", "Potency": "inactive"},
      {"smiles": "Cc1cc(/C=N/NC(=O)C(=O)N2CCCC2)c(C)n1-c1cccc(Br)c1", "Potency": "inconclusive: 44.7 µM [inhibitor, partial curve]"},
      {"smiles": "CCSC1=C(C#N)C(c2ccccc2OC)CC(=O)N1", "note": "(centres undefined)", "Potency": "inactive"},
      {"smiles": "O=C(NCc1ccc2c(c1)OCO2)c1ccc(-c2ccc(Cl)cc2)o1", "activity, negative = inhibition": "inconclusive: -97.9% [inhibitor]"},
      {"smiles": "COc1ccc(/C=C/C(=O)O)cc1S(=O)(=O)NCc1cccnc1", "Potency": "inconclusive: 50.1 µM [inhibitor, partial curve, poor fit]"},
      {"smiles": "CCN(CC)C(=N)/C(C#N)=N/Nc1ccc(C)cc1", "Potency": "inconclusive: 50.1 µM [inhibitor, partial curve]"},
      {"smiles": "CCOC(=O)CC(=O)CSc1n[nH]c(=O)[nH]c1=O", "Potency": "inconclusive: 56.2 µM [inhibitor, partial curve, poor fit]"},
      {"smiles": "COCCN(CC(=O)Nc1cccc(C)c1C)C(=O)Cn1cnc2ccccc2c1=O", "Potency": "inconclusive: 89.1 µM [inhibitor, single point]"},
      {"smiles": "COc1ccc(CCNC(=O)c2cc(-c3ccc(C)c(C)c3)nc3ccccc23)cc1OC", "Potency": "inconclusive: 39.8 µM [inhibitor, single point]"},
      {"smiles": "CN1CCc2c(sc(N)c2C(N)=O)C1", "activity, negative = inhibition": "inconclusive: -98.9% [inhibitor]"},
      {"smiles": "COCCSc1ccccc1C(=O)Nc1nnc(COC)s1", "Potency": "inconclusive: 1.41 µM [inhibitor, single point]"},
      {"smiles": "COc1ccc(-c2nc(CS(=O)CC(=O)NCc3ccccc3Cl)c(C)o2)cc1OC", "note": "(centres undefined)", "Potency": "inactive"},
      {"smiles": "Cn1c(C(=O)Nc2cccc(Cl)c2)cc2c(=O)n(C)c3ccccc3c21", "Potency": "inactive"},
      {"smiles": "COc1cc(/C=C2\\SC(N)=NC2=O)ccc1OCC(=O)Nc1ccc(C)cc1", "Potency": "inactive"},
      {"smiles": "Cc1nn(-c2ccccc2)nc1-c1nnc(-c2ccc(C(F)(F)F)cc2)o1", "Potency": "inconclusive: 79.4 µM [inhibitor, partial curve, poor fit]"},
      {"smiles": "COCC(C)n1c(=O)sc2ccccc2c1=O", "note": "(centres undefined)", "Potency": "inconclusive: 50.1 µM [inhibitor, partial curve]"},
      {"smiles": "COc1cc(OC)c(OC)cc1/C=N/NC(=O)c1cccc(S(=O)(=O)N2CCOCC2)c1", "Potency": "inconclusive: 10 µM [inhibitor, partial curve, poor fit]"},
      {"smiles": "COC(=O)COc1coc(CN2CCN(c3cccc(Cl)c3)CC2)cc1=O", "Potency": "inconclusive: 89.1 µM [inhibitor, single point]"},
      {"smiles": "COc1ccc(C2/C(=C(/O)c3ccc(C)cc3)C(=O)C(=O)N2c2ccccn2)cc1", "note": "(centres undefined)", "Potency": "active: 44.7 µM"},
      {"smiles": "O=C(Nc1ccc(-n2ccnc2P(=O)(O)c2ccccc2)cc1)c1ccccc1Br", "Potency": "inconclusive: 1.58 µM [inhibitor, partial curve, poor fit]"},
      {"smiles": "Cc1cc(C)c(C)c(S(=O)(=O)N2CCN(c3ccc(O)cc3)CC2)c1C", "Potency": "inconclusive: 5.01 µM [inhibitor, full curve, poor fit]"},
      {"smiles": "Cc1ccccc1NC(=O)CSc1nnc(Cc2cccn2C)n1-c1ccc(F)cc1", "Potency": "inconclusive: 50.1 µM [inhibitor, partial curve, poor fit]"},
      {"smiles": "Cc1ccc(NC(=O)CN(C)C(=O)c2ccc(Cl)nc2)cc1", "Potency": "inactive"},
      {"smiles": "Cc1cc(C(=O)CN2C(=O)NC3(CCCc4ccccc43)C2=O)c(C)n1Cc1ccccc1", "note": "(centres undefined)", "Potency": "inconclusive: 89.1 µM [inhibitor, single point]"},
      {"smiles": "COc1ccc(OC)c(NC(=O)C2CCN(Cc3cnn(-c4ccccc4)c3-n3cccc3)CC2)c1", "Potency": "active: 44.7 µM"},
      {"smiles": "Cc1ccccc1-n1cnnc1SCC(=O)N1CCN(c2ccccc2)CC1", "Potency": "inconclusive: 3.16 µM [inhibitor, partial curve, poor fit]"},
      {"smiles": "Cc1ccc(Cl)cc1N1CCN(C(=O)C2CCN(S(=O)(=O)c3c(C)noc3/C=C/c3ccccc3F)CC2)CC1", "Potency": "inactive"},
      {"smiles": "Cc1oc2c(c(C)cc3oc(=O)c(CC(=O)NCCc4ccc(Cl)cc4)c(C)c32)c1C", "Potency": "inactive"},
      {"smiles": "Cc1cc(O)c2c(c1O)C(=O)c1c(O)cc(C)c(O)c1C2=O", "activity, negative = inhibition": "inactive: -34.5% [at 2.33 µM]"},
      {"smiles": "CC1(C)O[C@H]2[C@@H](O1)[C@@H](C(=O)Nc1cc(F)ccc1F)O[C@@H]1OC(C)(C)O[C@@H]12", "Potency": "inactive"},
      {"smiles": "CCSc1nnc(NC(=O)CSc2nnc(CNC(=O)c3ccccc3F)o2)s1", "Potency": "inconclusive: 39.8 µM [inhibitor, single point]"},
      {"smiles": "CCc1nnc(NC(=O)C(NS(=O)(=O)c2ccc3c(c2)OCCO3)C(C)C)s1", "note": "(centres undefined)", "Potency": "inconclusive: 39.8 µM [inhibitor, single point]"},
      {"smiles": "O=S1(=O)N=C(Nc2nc3c(s2)CCCC3)c2ccccc21", "Potency": "inconclusive: 0.794 µM [inhibitor, full curve, poor fit]"},
      {"smiles": "O=C(CCS(=O)(=O)c1cccc2nsnc12)N1CC(=O)N(CCc2ccccc2)C(=O)C1", "Potency": "inconclusive: 28.2 µM [inhibitor, single point]"},
      {"smiles": "O=C(CN1CCN(Cc2ccccc2Cl)CC1)N/N=C/C=C/c1ccccc1[N+](=O)[O-]", "Potency": "inconclusive: 50.1 µM [inhibitor, partial curve]"},
      {"smiles": "O=C(COC(=O)c1ccc2[nH]c3c(c2c1)CCCC3)Nc1ccccc1", "Potency": "inconclusive: 17.8 µM [inhibitor, single point]"},
      {"smiles": "CC(NC(=O)C(C(=O)c1cccc([N+](=O)[O-])c1)n1cc(Cl)ccc1=O)c1ccccc1", "note": "(centres undefined)", "Potency": "inconclusive: 50.1 µM [inhibitor, partial curve, poor fit]"},
      {"smiles": "Cc1ccc(NC(=O)c2csnn2)c(C)c1", "Potency": "active: 14.1 µM"},
      {"smiles": "Cc1cc(-c2ccc(C)c(S(=O)(=O)N(C(C)C)C3CCCCC3)c2)on1", "Potency": "inactive"},
      {"smiles": "Cc1noc(C)c1-c1nc(NCc2cccs2)c2ccccc2n1", "activity, negative = inhibition": "inactive: -46% [at 0.501 µM]"},
      {"smiles": "Cc1nc(NC(=O)c2ccco2)sc1-c1csc(Nc2ccc(Cl)cc2)n1", "activity, negative = inhibition": "inactive: 11.9% [at 0.501 µM]"},
      {"smiles": "Cc1c(NC(=S)NC(NC(=O)C(C)(C)C)C(Cl)(Cl)Cl)c(=O)n(-c2ccccc2)n1C", "note": "(centres undefined)", "Potency": "inconclusive: 89.1 µM [inhibitor, single point]"},
      {"smiles": "Cc1c(Cl)cccc1N=Cc1ccc([N+](=O)[O-])s1", "Potency": "inconclusive: 22.4 µM [inhibitor, single point]"},
      {"smiles": "O=C(C1CCCN(Cc2ccccc2)C1)N1CCc2ccccc2C1", "note": "(centres undefined)", "Potency": "active: 8.91 µM"},
      {"smiles": "CCn1c(SCC(=O)Nc2nc(-c3ccccc3)cs2)nnc1-c1ccccc1", "Potency": "inconclusive: 44.7 µM [inhibitor, partial curve, poor fit]"},
      {"smiles": "COc1ccc(-c2nc3n(n2)C(c2cccc(C)c2)C(C(N)=O)=C(C)N3)cc1OC", "note": "(centres undefined)", "Potency": "inconclusive: 10 µM [inhibitor, partial curve, poor fit]"},
      {"smiles": "Fc1ccccc1CCNc1c2c(nc3ncnn13)CCCC2", "Potency": "active: 50.1 µM"},
      {"smiles": "O=C(CCBr)N1CCN(C(=O)CCBr)CC1", "activity, negative = inhibition": "inactive: -23.1% [at 2.33 µM]"},
      {"smiles": "Cc1ccc2nc(N(Cc3cccnc3)C(=O)CCc3ccccc3)sc2c1", "Potency": "inactive"},
      {"smiles": "Cc1cccc(-c2cc(C(=O)O)c3c(-c4ccc(F)cc4)[nH]nc3n2)c1", "Potency": "inactive"},
      {"smiles": "Nc1nnc(Cc2ccccc2)s1", "Potency": "inconclusive: 89.1 µM [inhibitor, single point]"},
      {"smiles": "CCCCN(C(=O)c1cccc(S(=O)(=O)N2CCN(C)CC2)c1)c1c(N)n(CCC)c(=O)[nH]c1=O", "Potency": "inactive"}
    ]}
  ]
}
